# PubChem BioAssay AID1347165 (National Center for Advancing Translational Sciences (NCATS), 2019)
# Among all 220,000 compounds or so, about 5,700 (2.6%) were called active. Inconclusive results, whose numbers are uncertain, are shown with a selection of clear calls. Calls come from the whole dose curve; as a rule, active = well fitted inhibition curve with a large enough effect; inconclusive = small, poorly fitted or top-dose-only effect; inactive = no such curve, though single readings can be large or run the other way. A potency beside an inconclusive call is a rough fit, not a confirmed value.
# Molecular target: Lysine-specific demethylase 5B (Homo sapiens) (UniProt Q9UGL1)
# Assay: Primary screen for KDM5B Histone Demethylases FDH-coupled qHTS; note: nearly all actives have a fitted effect of over 70% in size; for activity change, negative = inhibition: 0% is about no effect
# Conditions: FDH-coupled NADH fluorescence (FDH is formaldehyde dehydrogenase); activity change, negative = inhibition: at 57.7 µM (top of the series) unless noted
# Summary of the method: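 Coupled FDH/NAD⁺ fluorescence readout. KDM5BΔAP 200 nM final; compound titration, 10 min RT preincubation; substrate mix 12.5 µM H3K4me3, 25 µM 2-OG, 50 µM Fe(II), 100 µM ascorbate, 0.25 mM NAD⁺, 0.25 U/mL FDH; ΔRFU over 30 min.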
# Potency is the fitted concentration of half-maximal effect; tags give direction and shape of the fitted curve.
# Sequence of UniProt Q9UGL1 (Q9UGL1 whole entry, looked up): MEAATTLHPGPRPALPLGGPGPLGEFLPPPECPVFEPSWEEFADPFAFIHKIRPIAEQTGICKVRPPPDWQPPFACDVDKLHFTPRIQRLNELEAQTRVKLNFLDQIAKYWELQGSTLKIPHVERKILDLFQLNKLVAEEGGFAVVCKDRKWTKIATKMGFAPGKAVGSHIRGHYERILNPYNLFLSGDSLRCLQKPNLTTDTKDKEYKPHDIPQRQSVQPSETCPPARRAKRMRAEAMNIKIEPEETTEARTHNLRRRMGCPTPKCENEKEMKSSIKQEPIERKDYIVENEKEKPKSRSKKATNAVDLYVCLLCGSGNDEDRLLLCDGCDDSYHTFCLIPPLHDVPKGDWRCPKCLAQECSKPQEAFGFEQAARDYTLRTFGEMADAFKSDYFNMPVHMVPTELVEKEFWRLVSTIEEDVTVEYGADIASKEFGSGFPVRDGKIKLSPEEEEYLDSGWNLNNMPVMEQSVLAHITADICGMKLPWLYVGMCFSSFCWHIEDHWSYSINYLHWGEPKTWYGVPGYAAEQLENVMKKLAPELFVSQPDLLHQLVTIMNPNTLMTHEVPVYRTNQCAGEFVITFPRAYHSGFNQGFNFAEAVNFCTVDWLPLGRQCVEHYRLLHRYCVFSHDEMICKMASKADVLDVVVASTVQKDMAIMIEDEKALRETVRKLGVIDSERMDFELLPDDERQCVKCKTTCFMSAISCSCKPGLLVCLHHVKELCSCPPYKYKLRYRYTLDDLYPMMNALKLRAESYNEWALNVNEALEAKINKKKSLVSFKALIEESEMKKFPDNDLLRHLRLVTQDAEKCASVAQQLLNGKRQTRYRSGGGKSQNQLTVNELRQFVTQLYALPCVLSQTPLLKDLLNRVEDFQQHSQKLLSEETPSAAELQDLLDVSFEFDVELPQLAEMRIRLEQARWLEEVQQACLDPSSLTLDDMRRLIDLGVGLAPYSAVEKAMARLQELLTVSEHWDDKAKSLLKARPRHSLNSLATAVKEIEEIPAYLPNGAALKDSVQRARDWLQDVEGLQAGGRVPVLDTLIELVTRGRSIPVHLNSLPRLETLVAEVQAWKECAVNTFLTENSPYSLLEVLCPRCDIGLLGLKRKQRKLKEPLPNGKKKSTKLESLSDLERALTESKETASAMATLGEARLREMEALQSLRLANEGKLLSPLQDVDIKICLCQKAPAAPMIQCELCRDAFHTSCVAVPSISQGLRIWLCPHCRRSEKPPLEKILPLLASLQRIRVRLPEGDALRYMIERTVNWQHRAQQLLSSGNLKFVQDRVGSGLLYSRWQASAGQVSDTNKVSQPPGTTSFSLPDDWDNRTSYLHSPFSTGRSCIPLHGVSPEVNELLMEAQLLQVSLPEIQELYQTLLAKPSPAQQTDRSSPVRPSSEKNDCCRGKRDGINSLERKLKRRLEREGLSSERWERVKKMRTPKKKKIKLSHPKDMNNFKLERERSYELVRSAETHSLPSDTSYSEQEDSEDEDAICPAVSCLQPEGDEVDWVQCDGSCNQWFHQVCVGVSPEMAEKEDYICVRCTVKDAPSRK
SMILES,"activity change, negative = inhibition",Potency
COc1ccccc1C(=O)Nc1cccc(OCc2cc(=O)n3c4c(sc3n2)CCCC4)c1,inconclusive: -41.9% [inhibitor],
OCC1CCN(c2ccc(-c3nc(CCCc4ccccc4)no3)cn2)CC1,,"inconclusive: 17.8 µM [inhibitor, partial curve, poor fit]"
Cc1ccccc1NC(=O)Cc1nc(-c2c(N)n(C)c(=O)n(C)c2=O)cs1,,"inconclusive: 39.8 µM [inhibitor, single point]"
COCCNc1nc2c(S(=O)(=O)c3ccc(C)cc3)nnn2c2ccccc12,,active: 79.4 µM
Cc1ccc2oc(=O)cc(CN3CCN(CCO)CC3)c2c1,,inactive
CCN(C(=O)CSc1nc(-c2ccccc2)no1)c1cccc(C)c1,,inactive
Nc1nc[nH]c(=O)c1N,,"inconclusive: 22.4 µM [inhibitor, partial curve, poor fit]"
CC1=C(c2ccc(C)c(C)c2)S(=O)(=O)N(Cc2ccc(C(=O)NCCC(C)C)cc2)C1=O,,inactive
C[C@@]1(O)CCN(C(=O)c2ccc(-c3ccco3)cc2)C[C@@H]1O,,"inconclusive: 28.2 µM [inhibitor, partial curve]"
COCC1CN(Cc2cccc(C(F)(F)F)c2)CC12CCNCC2 (stereo not given),,"inconclusive: 7.94 µM [inhibitor, single point]"
COc1ccccc1N1CCN([C@@H]2[C@H](O)[C@H](CO)O[C@@H]2CNC(=O)c2ccccc2)CC1,,"inconclusive: 22.4 µM [inhibitor, partial curve, poor fit]"
COc1ccccc1N1CCN(c2ccc(=O)n(CC(=O)O)n2)CC1,,"inconclusive: 15.8 µM [inhibitor, single point]"
CC1CCc2c(c(-c3cccc(O)c3)nc3ccc4ccccc4c23)C1 (stereo not given),,"inconclusive: 22.4 µM [inhibitor, partial curve, poor fit]"
CCOc1ccccc1NC(=O)NC1CCCCCCC1,,inactive
O=C(Cn1ccn2nc(-c3ccc(F)cc3)c(CO)c2c1=O)NCc1ccc(F)cc1F,,inactive
CCN(CC)c1cc(C)nc(Nc2ccc(NS(=O)(=O)c3cc(C(C)(C)C)ccc3OC)cc2)n1,,"inconclusive: 17.8 µM [inhibitor, single point]"
CC(=O)Nc1ccc(NC(=O)COc2ccc3c(C)cc(=O)oc3c2)cc1,,"inconclusive: 28.2 µM [inhibitor, partial curve, poor fit]"
Cc1ccc(CNC(=O)NCC2Cn3cccc3C(=O)N2C)cc1 (stereo not given),,inactive
Cc1ccc2c(c1)cc(C(=O)NCc1ccc(F)cc1)n2C,,"inconclusive: 25.1 µM [inhibitor, single point]"
Cn1cnc2cc(-c3ccccc3)cc(C(=O)NCc3cccnc3)c21,,active: 31.6 µM
COc1cccc(N(C(=O)c2snc(C(N)=O)c2N)C(C(=O)NCc2ccccc2)c2ccc(O)cc2)c1 (stereo not given),,"inconclusive: 25.1 µM [inhibitor, partial curve, poor fit]"
Cc1ccc(-c2ccc(C=O)cc2)c(C)c1,,"inconclusive: 112 µM [inhibitor, partial curve]"
CCN(CC)S(=O)(=O)c1ccc2nc(NC(=O)c3ccccc3OC)sc2c1,,"inconclusive: 28.2 µM [inhibitor, single point]"
Cc1nn(-c2ccc(N3CCCCC3)nn2)c(C)c1CCC(=O)NCCc1ccco1,,"inconclusive: 25.1 µM [inhibitor, single point]"

SMILES,"activity change, negative = inhibition",Potency
COc1ccc(S(=O)(=O)N2CCC(Cc3nncn3C)CC2)cc1,,inactive
CC(C)(C)c1ccc(C(=O)Nc2nc3c(s2)C[C@@H]2[C@](C)(CO)[C@H](O)CC[C@@]2(C)[C@@H]3CC(=O)NCc2cccs2)cc1,,active: 14.1 µM
Cc1ccc(C(=O)Nc2ccc(Cl)c(C(F)(F)F)c2)cc1Cl,,"inconclusive: 39.8 µM [inhibitor, single point]"
COc1cccc(-c2nc3ccc(-c4ccc5c(c4)OCO5)cc3o2)c1OC,,inactive
CCc1c(C(=O)c2ccc[nH]2)oc2ccc(Cl)cc12,,"inconclusive: 31.6 µM [inhibitor, partial curve, poor fit]"
CCOc1ccc(NC(=O)CN2CCN(CC(=O)Nc3ccc(N(C)C)cc3)CC2)cc1,,inactive
COc1ccccc1NC(=O)c1ccc2[nH]c(C)cc(=O)c2c1,,inactive
COc1ccccc1CN1CCc2nc(C(=O)Nc3cccc(C(F)(F)F)c3)oc2CC1,,active: 35.5 µM
COc1ccc(Br)cc1COC(=O)c1ccc(OC)c(OC)c1OC,,inactive
Cc1ccc(NC(=O)C2CC(=O)N(c3n[nH]c4cccc(F)c34)C2)cc1 (stereo not given),,active: 20 µM
O=C(COC(=O)CCc1nc2ccccc2s1)Nc1ccccc1C(=O)c1ccccc1,,inactive
COc1ccc(NC(=O)[C@@H]2C[C@H](c3ccc(F)cc3)N(Cc3csc(C)n3)C2)cc1,,"inconclusive: 35.5 µM [inhibitor, partial curve, poor fit]"
CCN(C(=O)CSc1nc2ccccc2nc1Cc1cccc(OC)c1)c1cccc(C)c1,,"inconclusive: 15.8 µM [inhibitor, partial curve, poor fit]"
Cn1nc(C(=O)Nc2ccccc2Br)c2ccccc2c1=O,,inactive
O=Cc1[nH]c2ccccc2c1Cl,,"inconclusive: 35.5 µM [inhibitor, partial curve, poor fit]"
O=C(Nc1ccc(Br)cc1)C1CC2CCC1C2 (stereo not given),,inactive
CN(C)c1ccc(C(CNC(=O)c2ccccc2Cl)N2CCc3ccccc32)cc1 (stereo not given),,"inconclusive: 12.6 µM [inhibitor, partial curve, poor fit]"
CN(C)c1ccc(CN2CCNc3cc(Nc4ccccc4)ncc3C2)cc1,,active: 39.8 µM
O=C(c1nc(-c2cccnc2)no1)N1CCN(c2ccccc2)CC1,,inactive
C/C(=N\NC(=O)CN1CCCCC1)c1ccccc1O,,"inconclusive: 28.2 µM [inhibitor, partial curve, poor fit]"
Cc1c(O)ccc2c(CN(C)CCOc3ccccc3F)cc(=O)oc12,,"inconclusive: 39.8 µM [inhibitor, single point]"
COc1cccc(NC(=O)CSc2nnc3[nH]c(=O)cc(-c4ccccc4)n23)c1,,"inconclusive: 2.24 µM [inhibitor, partial curve, poor fit]"
CC(C)c1ccc(C#N)c(N2CC[C@H](N3CCOCC3)[C@H](CCCO)C2)n1,,active: 28.2 µM
COc1ccc(CCNc2oc(/C=C/c3ccc(OC)c(OC)c3)nc2C#N)cc1,,"inconclusive: 3.16 µM [inhibitor, full curve, poor fit]"

SMILES,"activity change, negative = inhibition",Potency
CN(Cc1cccnc1)C1CCc2ccccc21 (stereo not given),,"inconclusive: 39.8 µM [inhibitor, single point]"
CCNC(=O)c1ccc2c(c1)NC(=O)CS2,,inactive
O=S(=O)(C1CC1)N1CCC(Cc2noc(-c3ccccc3)n2)C1 (stereo not given),,inactive
Cc1cn2nc(C(=O)NCc3ccc(Cl)cc3)cc2c(N2CCCC2)n1,,active: 31.6 µM
Cc1c(-c2nsc(NC(=O)c3cccc(Cl)c3)n2)nnn1-c1cc(F)ccc1F,,inactive
COc1ccc(S(=O)(=O)N2CCCOC2CNC(=O)C(=O)NCCCN2CCOCC2)cc1C (stereo not given),,inactive
NCC(=O)N1CCC(n2nccc2NC(=O)Nc2cccc(F)c2)CC1,,"inconclusive: 8.91 µM [inhibitor, partial curve]"
COc1ccc(C(=O)Nc2cc(-c3nc4ncccc4o3)ccc2C)cc1Br,,"inconclusive: 2.82 µM [inhibitor, full curve, poor fit]"
COc1ccc2[nH]c3c(c2c1)CCNC31CCN(C(=O)NC(C)(C)C)CC1,,"inconclusive: 31.6 µM [inhibitor, single point]"
Cc1ccc(-c2ccc3nnc(CNC(=O)c4ccc(F)c(F)c4)n3n2)cc1,,active: 28.2 µM
CCN1c2cc(C(=O)NCc3ccc(SC)cc3)ccc2C(=O)N2CCCCC21 (stereo not given),,"inconclusive: 28.2 µM [inhibitor, partial curve, poor fit]"
c1ccc2c(c1)CC(N1CCC(CN(CCCn3cccn3)CC3CCCO3)CC1)C2 (stereo not given),,"inconclusive: 28.2 µM [inhibitor, partial curve, poor fit]"
COCCNC(=O)C1(C)CN(Cc2ccccc2)Cc2ccc(Nc3ccccc3)nc21 (stereo not given),,active: 31.6 µM
COc1ccc2c(C)c(CCC(=O)N(C)C3CCC(C)CC3)c(=O)oc2c1 (stereo not given),,"inconclusive: 31.6 µM [inhibitor, partial curve, poor fit]"
CCCCNC(=O)CSc1nc(-c2ccc(OC)cc2)cc(C(F)(F)F)n1,,"inconclusive: 3.16 µM [inhibitor, full curve, poor fit]"
CNC(=O)c1cccc(-c2cnc3[nH]cc(CC(=O)NCc4cccc(F)c4)c3c2)c1,,inactive
COCCOC1CCN(C(=O)c2cc(C)n(CCOC)c2C)CC1,,"inconclusive: 17.8 µM [inhibitor, partial curve, poor fit]"
N#Cc1c(Cl)cccc1N1CCC(C(N)=O)CC1,,"inconclusive: 22.4 µM [inhibitor, partial curve, poor fit]"
O=C1NC(c2ccccc2)Nc2sc3c(c21)CCN(Cc1ccccc1)C3 (stereo not given),,"inconclusive: 22.4 µM [inhibitor, partial curve, poor fit]"
C#CCNC(=O)c1nccnc1N,,"inconclusive: 22.4 µM [inhibitor, partial curve, poor fit]"
CCN1c2cc(C(=O)NCc3cc(F)ccc3F)ccc2C(=O)N2CCCCCC21 (stereo not given),,"inconclusive: 22.4 µM [inhibitor, partial curve, poor fit]"
COc1ccc(Cl)cc1NC(=O)c1ncoc1-c1ccc(OC)c(OC)c1,,inactive
